This passage reports z-score results from PubChem BioAssay AID488969 (Vanderbilt High Throughput Screening Facility, 2010).

Structures are written as SMILES. Several values for one entry are separate records, joined by “and”; a condition that tells them apart may be missing. Equal entries are not always repeated. In all, about 110,000 compounds were measured (“z-score”: median about -0.1, highest 2% from about 2 on). This is one part of the list.

This assay addresses Metabotropic glutamate receptor 8 (Rattus norvegicus) (UniProt P70579). The assay can be described thus: rat mGluR8 modulators via GIRK flux, primary screen, cell-based, thallium flux, HTS (AID 488969). The note with it: HEK293 rat mGluR8, GIRK (G protein-gated inwardly rectifying potassium channel) thallium flux, FluoZin2; at 10 µM; stronger effect = higher value; submaximal glutamate (EC20) added with thallium.
Sequence of UniProt P70579 (P70579 whole entry, looked up): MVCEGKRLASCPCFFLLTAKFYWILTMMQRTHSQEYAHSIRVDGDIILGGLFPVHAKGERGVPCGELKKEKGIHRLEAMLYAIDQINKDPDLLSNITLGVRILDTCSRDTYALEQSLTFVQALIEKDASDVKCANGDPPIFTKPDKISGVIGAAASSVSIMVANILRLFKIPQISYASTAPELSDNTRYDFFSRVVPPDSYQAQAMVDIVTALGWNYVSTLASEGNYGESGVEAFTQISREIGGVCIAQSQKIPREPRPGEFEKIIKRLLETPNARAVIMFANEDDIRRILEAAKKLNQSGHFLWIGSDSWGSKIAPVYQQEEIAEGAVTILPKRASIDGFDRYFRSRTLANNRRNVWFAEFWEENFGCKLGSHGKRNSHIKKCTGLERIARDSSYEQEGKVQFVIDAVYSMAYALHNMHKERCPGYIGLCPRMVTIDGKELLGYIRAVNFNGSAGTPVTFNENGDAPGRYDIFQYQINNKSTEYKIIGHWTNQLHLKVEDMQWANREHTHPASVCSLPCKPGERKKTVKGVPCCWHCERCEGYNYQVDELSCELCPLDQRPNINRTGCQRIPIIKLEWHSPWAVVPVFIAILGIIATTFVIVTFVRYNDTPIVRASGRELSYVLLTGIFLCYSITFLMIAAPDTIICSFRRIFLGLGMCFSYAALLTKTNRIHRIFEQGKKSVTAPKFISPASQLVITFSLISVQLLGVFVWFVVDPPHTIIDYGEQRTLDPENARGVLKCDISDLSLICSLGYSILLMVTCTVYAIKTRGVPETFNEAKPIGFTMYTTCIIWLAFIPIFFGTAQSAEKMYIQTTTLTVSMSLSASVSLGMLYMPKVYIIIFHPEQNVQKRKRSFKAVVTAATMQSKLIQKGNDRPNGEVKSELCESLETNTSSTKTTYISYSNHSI
For `COc1ccc(S(=O)(=O)N(C)CC(=O)N2CCOCC2)cc1Cl`, the z-score was -1.29.
The result for `CN(Cc1ccccc1)c1nc(-c2cccc([N+](=O)[O-])c2)nc2ccccc12` reads -0.185; that for `COc1ccc(Sc2cc(C(F)(F)F)nc(-c3ccccn3)n2)cc1`, -0.417.
`CN1CCN(C(=O)c2cc3c(C(F)(F)F)nn(C)c3s2)CC1`: the z-score is 0.145.
Consider `O=C(NC1CCCCC1)N1CCC(c2nc3ccccc3[nH]2)CC1`, for which the z-score worked out at 0.0638.
`CCCSc1nc2c(c(=O)n(C)c(=O)n2C)n1Cc1ccc(C)cc1` showed a z-score of -0.518.
`CCc1ccc(N2C(=O)Cc3c2nc(N)c(C#N)c3N)cc1` had a z-score of -0.00155.
`COc1cc(-c2nnc(CSc3nnc4nc(C)cc(C)n34)o2)cc(OC)c1OC` had a z-score of -0.228.
Molecule `Cc1ccc(-n2c(-c3nn(C)c(C)c3Cl)n[nH]c2=S)cc1` registered a z-score of -0.213.
For the molecule `CC(=O)Nc1ccc(NS(=O)(=O)c2ccc(Cl)c(C(=O)O)c2)cc1`, the z-score came out at 1.08.
The molecule `CN1CCC(=NNC(=O)C(=O)Nc2ccccc2)CC1` yielded a z-score of -0.494.
Molecule `C=CCn1c(SCC(=O)N2CCc3ccccc3C2)nc2sc(C)c(C)c2c1=O` registered a z-score of -0.981.
`O=C(CSc1nc(-c2ccc(F)cc2)cc(C(F)(F)F)n1)NCCN1CCOCC1`: the z-score worked out at 0.00416.
`CC(C)OC(=O)C1C(=O)CC(C)(O)C(C(=O)OC(C)C)C1c1cccc(O)c1` (stereo unspecified) came in with a z-score of 0.0244.
The molecule `CCS(=O)(=O)N1CCCC(C(=O)NCCCOC(C)C)C1` (stereo unspecified) had a z-score of -0.406.
`COc1ccc(NC(=O)OCC(C)C)cc1OC` had a z-score of 0.00658.
As for `O=C(c1ccc(-n2cnnn2)cc1)N1CCN(C(c2ccccc2)c2ccccc2)CC1`, the figure is -0.399; as for `CCOC(=O)c1c(NC(=O)C(Sc2ccccc2)c2ccccc2)sc(C(N)=O)c1C` (stereo unspecified), -0.216.
The result for `CCOC(=O)N1CCC(NC(=O)CSCc2cnn(-c3ccccc3)c2-n2cccc2)CC1` reads -0.7.
`O=C(Cn1nc(C(F)(F)F)c2c1CCC2)Nc1ccccc1C(F)(F)F` returned a z-score of -0.132.
The molecule `CCSc1nc2ccccc2c(=O)n1OCC(=O)OC` showed a z-score of -0.148.
Turning to `COC(=O)c1ccccc1NC(=O)c1ccc2c(c1)OCCO2`, the z-score was -0.887.
On to `O=C(COC(=O)C12CC3CC(CC(C3)C1)C2)Nc1nc2c(F)c(F)c(F)cc2s1`, for which the z-score is -0.635.
`CCc1noc(C)c1C(=O)N1CCOCC1` returned a z-score of 0.252.
`NN1C(=O)c2cccc3c(C(=O)O)ccc(c23)C1=O` registered a z-score of 0.219.
The result for `Cn1nnnc1SCc1ccc(C(=O)Nc2ccc(Br)cc2)cc1` reads -0.0576; that for `Cc1ccc(C(=O)C2=C(O)C(=O)N(CCCn3ccnc3)C2c2ccc(OC(C)C)cc2)o1` (stereo unspecified), 0.882.
As for `CCC(=O)Nc1nc(-c2ccccc2)ns1`, the figure is 0.249; as for `CCOC(=O)c1[nH]c(C)c(/C(O)=C2\C(=O)C(=O)N(CCCn3ccnc3)C2c2ccncc2)c1C` (stereo unspecified), -0.672; as for `CCOC(=O)c1cnc(SCC(=O)Nc2ccc(N3CCOCC3)cc2)nc1N`, -0.1.
In the case of `COc1ccccc1N1C(=O)c2ccccc2NC1C(OC)OC` (stereo unspecified), the z-score came out at 0.107.
The molecule `CCCNC(=O)c1cn(CC)c2cc(N3CCN(C)CC3)c(F)cc2c1=O` came in with a z-score of -0.0575.
Take `Cc1ccccc1NC(=S)NC(NC(=O)c1ccco1)C(Cl)(Cl)Cl` (stereo unspecified): the z-score is -0.217.
The molecule `COc1ccc(S(=O)(=O)Nc2cccc(C)n2)c2ccccc12` returned a z-score of -0.106.
In the case of `CC1(C(=O)CSc2n[nH]c(-c3ccccc3Cl)n2)CCC(=O)O1` (stereo unspecified), the z-score is -0.451.
The result for `COC(=O)c1c(NC(=O)c2ccccc2)sc2c1CC(C)(C)OC2` reads 0.169; that for `Cn1nc(-c2ccccc2)c(CSc2ccccc2)c1Cl`, -0.181; that for `CC(C)C(=O)Nc1ccc2oc(-c3cc(F)c(F)cc3Cl)nc2c1`, -0.243.
As for `Nc1nc(SCc2nc3scc(-c4ccccc4)c3c(=O)[nH]2)n[nH]1`, the figure is 0.366.
On to `CCn1cnc2cc(NCc3cccc(OC)c3O)ccc21`, for which the z-score is -0.0422.
`O=C(NC1CCCCC1)c1ccc(S(=O)(=O)NCc2cccnc2)cc1` returned a z-score of 0.0275.
`CCCCCCCC[n+]1cccc(C(=O)N2c3c(nc(N)[nH]c3=O)NC(C)C2C)c1` (stereo unspecified) gave a z-score of 0.119.
For the molecule `CCOc1ncccc1C(=O)OCC(=O)N1CCN(S(=O)(=O)c2ccccc2)CC1`, the z-score was -0.128.
Regarding `O=C(CCN1C(=O)/C(=C/C=C/c2ccccc2)SC1=S)Nc1nccs1`, the z-score was -0.78.
Take `COc1ccccc1OCc1ccc(C(=O)N2CCN3CCCC3C2)cc1` (stereo unspecified): the z-score is 0.356.
The result for `C/C(=N/NC(=O)c1sc(NS(=O)(=O)c2ccccc2)nc1C)c1ccccc1` reads 0.345.
On to `CCn1c(SCC(=O)N2c3ccccc3Sc3ccccc32)nnc1-c1ccco1`, for which the z-score was -2.42.
Molecule `CCN(CC)CCCOc1nc(C)nc2c1oc1ccccc12` registered a z-score of 0.0553.
Consider `CCOc1ccc(Cl)cc1CN1CCOCC1`, for which the z-score was -0.517.
Molecule `COc1cc(C(=O)N2CCC(NC(=O)C(Cc3ccccc3C)NC(C)=O)CC2)cc(OC)c1OC` (stereo unspecified) showed a z-score of 0.0625.
As for `CCC(C)(C)n1nnnc1C(c1ccc2ncccc2c1)N1CCCC(C)C1` (stereo unspecified), the figure is -0.575.
`COc1cccc(OC)c1OCCOc1ccccc1OC(C)C` returned a z-score of -0.203.
As for `O=C(OCCN1CCOCC1)c1cccnc1`, the z-score was -0.0644 and 0.725.
Regarding `CCn1nc(C(=O)Nc2cccc3ccccc23)c(Cl)c1Cl`, the z-score is -0.173.
For the molecule `CC1CC(C)CN(CCCNC(=O)Cc2c(C(=O)O)n(C)c3ccccc23)C1` (stereo unspecified), the z-score is 0.0115.
`CCc1ccc2nc3n[nH]c(N)c3cc2c1` registered a z-score of -0.0989.
Molecule `O=C(CS(=O)c1ccc(C(F)(F)F)cc1[N+](=O)[O-])Oc1ccccc1` (stereo unspecified) came in with a z-score of -0.141.
`CCCS(=O)(=O)N1CCN(S(=O)(=O)c2ccccc2)CC1` displayed a z-score of -0.557.
In turn, `O=c1[nH]cnc2cc(Cl)ccc12` had a z-score of -0.0535.
`Cc1cc(-c2nnco2)c(C)n1-c1ccccc1` had a z-score of -0.226.
`COc1ccc(Oc2nc(SC)nc3ccsc23)cc1`: the z-score was -0.225.
`CCCCNC(=O)C1CC(=O)N(CCC(C)C)C1` (stereo unspecified): the z-score was -0.0189.
Molecule `COc1ccc(C(=O)NCc2nnc(SCC(=O)N3CCc4ccccc43)n2C2CCCCC2)cc1` displayed a z-score of 0.327.
`O=C(Cn1nnc2ccccc2c1=O)NCCc1ccccc1` registered a z-score of -0.04.
Take `N#C/C(=C\c1cccnc1)C(=O)Nc1ccccc1`: the z-score is -0.204.
`O=C(O)CCC(=O)Nc1nc(-c2ccccc2)cs1` returned a z-score of 0.102.
The result for `Cc1ccc(-n2c(-c3ccccc3)nnc2-c2cccs2)cc1` reads -0.571; that for `COc1ccc(C(=O)N(Cc2ccco2)C(C(=O)NC2CCCC2)c2ccc(O)cc2)cc1OC` (stereo unspecified), -0.499.
`O=c1c2ccc(-c3nnc4n3-c3ccccc3SC4)cc2nc2n1CCCCC2` showed a z-score of -0.365.
The result for `CCN(CC)c1ncnnc1-c1ccccc1` reads -0.267.
`CCOc1ccc2[nH]c(=O)c(CN(Cc3ccc(C)cc3)C(=O)N3CCCC3)cc2c1` came in with a z-score of 0.457.
`O=S(=O)(Nc1ncn[nH]1)c1ccc(Cl)cc1` gave a z-score of 0.0176.
Regarding `Cc1nc2ccc(NC(=O)N3CCN(c4ccccn4)CC3)cc2s1`, the z-score came to 0.0129.
In turn, `CCCCSc1nc2ccccc2n1CC(=O)O` showed a z-score of -0.412.
The molecule `O=C(CCc1nc2ccccc2[nH]1)Nc1ccc(F)cc1` displayed a z-score of 0.571.
In turn, `Cn1c(C(C#N)C(=O)c2sc3ccccc3c2Cl)nc2ccccc21` (stereo unspecified) had a z-score of -0.0401.
As for `Cc1onc(-c2ccccc2Cl)c1C(=O)Nc1cc(=O)n(C)c(=O)n1C`, the figure is -0.162; as for `Cc1ccsc1/C=N/n1cnc2sc(C)c(C)c2c1=O`, 0.277; as for `CC(=O)Nc1ccc(S(=O)(=O)N(C)CC(=O)OCC(=O)Nc2ccc3c(c2)OCO3)cc1`, 0.11.
`O=C(CCn1c(=O)c2ccccc2n(Cc2cccnc2)c1=O)NCc1ccc2c(c1)OCO2`: the z-score came out at 0.361.
The molecule `Cn1c(=O)n(C)c2cc([N+](=O)[O-])c(N3CCN(S(=O)(=O)c4ccc5ccccc5c4)CC3)cc21` gave a z-score of -1.61.
`O=C(Nc1ccccc1)c1c(F)c(F)c(F)c(F)c1F` yielded a z-score of -0.122.
The result for `NC(=O)C1CCN(C(=O)c2ccc(NC3=NC4CS(=O)(=O)CC4S3)cc2)CC1` (stereo unspecified) reads -0.161; that for `Cc1snc2sc(C(=O)c3ccc(Br)cc3)c(N)c12`, -0.378; that for `Cc1ccc2c(c1)c(CC(=O)Nc1ccc(C)c(F)c1)c(C(=O)O)n2C`, -0.802.
As to `CCOC(=O)NC(=O)CSc1nnnn1-c1ccc(C)cc1`, the z-score was -0.044.
The result for `Cc1cc(Br)ccc1NCc1ccccn1` reads 0.00249; that for `O=c1c2ccccc2c(-c2ccccc2)nn1Cc1c(Cl)cccc1Cl`, -0.0848; that for `CCOC(=O)C1=C(CS(=O)(=O)c2ccccc2)NC(=O)NC1c1ccccc1` (stereo unspecified), 0.642.
For the molecule `Fc1ccc(-c2nn3c(C4COc5ccccc5O4)nnc3s2)cc1` (stereo unspecified), the z-score was 0.848.
As for `CC1(C)OC(=O)CC1C(=O)NCc1ccccc1` (stereo unspecified), the figure is 0.573.
`CCOc1ccc(Cl)cc1S(=O)(=O)N1CCN(c2ccc(C)c(C)c2)CC1` came in with a z-score of -0.391.
With `C/C(Cn1cnc([N+](=O)[O-])n1)=N\NC(=O)c1cccc(F)c1`, the z-score is -0.0241.
`COc1cc(/C=C/c2nc(-c3ccccc3O)n[nH]2)cc(OC)c1OC` came in with a z-score of -0.401.
As to `CCc1ccc(OCC(O)CN2CCC(CN3C(=O)c4cccc5cccc(c45)C3=O)CC2)cc1` (stereo unspecified), the z-score was -0.57.
In turn, `COc1c(/C=N/NC(=O)c2ccccc2O)c(CCN(C)C(C)=O)cc2c1OCO2` had a z-score of -0.0341.
The result for `CO/N=C/NC(=O)NOCc1ccc(Cl)cc1Cl` reads -0.332; that for `CCc1nc2ccccc2c(C(=O)Oc2cccc3cccnc23)c1C`, -0.719.
Consider `Nc1nc(SCC(=O)NCc2ccco2)[nH]c(=O)c1-c1ccccc1`, for which the z-score is -0.148.
Molecule `CCCCn1c(SCC(=O)O)nc2ccccc21` registered a z-score of -0.804.
Regarding `O=C(NCc1cn(-c2ccccc2)nc1-c1ccccc1)c1cc([N+](=O)[O-])cc([N+](=O)[O-])c1`, the z-score turned out to be 0.187.
On to `CCn1c(SCc2nc3scc(-c4ccccc4)c3c(=O)[nH]2)nnc1-c1cccs1`, for which the z-score is -0.975.
For `Cc1cc(N2CCOCC2)nc2ccc(NC(=O)CCC(=O)N3CCCCC3)cc12`, the z-score is -0.00221.
As to `Cc1nn2c(-c3ccncc3)nnc2c2ccccc12`, the z-score was -1.3.
With `O=C(CN1CCOc2ccccc21)NC1CCN(Cc2ccccc2)CC1`, the z-score was -0.53.
As for `CC1CCOC2(O1)C(=O)N(CN1CCN(c3cccc(Cl)c3)CC1)c1ccccc12` (stereo unspecified), the figure is -0.0539; as for `CCCOc1ccc(Cn2c(O)cc(=O)[nH]c2=O)cc1`, -0.238; as for `O=C1Nc2ccccc2/C1=C/C(=O)c1cccs1`, 0.962.
Consider `COc1cccc(-c2noc(N)c2C#N)c1`, for which the z-score was -0.206.
For `COC(=O)c1ccc(C(c2c(N)n(CC(C)C)c(=O)[nH]c2=O)N2CCN(c3ccccc3)CC2)cc1` (stereo unspecified), the z-score was determined as 0.147.
As to `CCOC(=O)C1=C(C)Nc2nnnn2C1c1c[nH]c2ccccc12` (stereo unspecified), the z-score is -0.097.
